From paper PMC2916856
Results are given in words; binding and its absence hold for the method and conditions named. For some assays here: Binding seen in cells or lysates may run through a third protein. Some binding calls cover weakened binding; strength is not graded here. For some assays here: Tags and fused reporters may be left off the sequences shown.

Legend:
[1] = molecular target: T1, Dpb11 bait (pEG202-DPB11) (S. cerevisiae) (UniProt P47027); assay: two-hybrid; B42/lexA system, lacZ reporter, β-galactosidase (ONPG) on extracts; cells arrested in M (nocodazole) or G1 (α-factor), galactose induction 1 h; strain EGY42, also wt (K699) and cdc28-as1 (JAU01) backgrounds, the latter with or without 5 µM 1NMPP1
T1 sequence: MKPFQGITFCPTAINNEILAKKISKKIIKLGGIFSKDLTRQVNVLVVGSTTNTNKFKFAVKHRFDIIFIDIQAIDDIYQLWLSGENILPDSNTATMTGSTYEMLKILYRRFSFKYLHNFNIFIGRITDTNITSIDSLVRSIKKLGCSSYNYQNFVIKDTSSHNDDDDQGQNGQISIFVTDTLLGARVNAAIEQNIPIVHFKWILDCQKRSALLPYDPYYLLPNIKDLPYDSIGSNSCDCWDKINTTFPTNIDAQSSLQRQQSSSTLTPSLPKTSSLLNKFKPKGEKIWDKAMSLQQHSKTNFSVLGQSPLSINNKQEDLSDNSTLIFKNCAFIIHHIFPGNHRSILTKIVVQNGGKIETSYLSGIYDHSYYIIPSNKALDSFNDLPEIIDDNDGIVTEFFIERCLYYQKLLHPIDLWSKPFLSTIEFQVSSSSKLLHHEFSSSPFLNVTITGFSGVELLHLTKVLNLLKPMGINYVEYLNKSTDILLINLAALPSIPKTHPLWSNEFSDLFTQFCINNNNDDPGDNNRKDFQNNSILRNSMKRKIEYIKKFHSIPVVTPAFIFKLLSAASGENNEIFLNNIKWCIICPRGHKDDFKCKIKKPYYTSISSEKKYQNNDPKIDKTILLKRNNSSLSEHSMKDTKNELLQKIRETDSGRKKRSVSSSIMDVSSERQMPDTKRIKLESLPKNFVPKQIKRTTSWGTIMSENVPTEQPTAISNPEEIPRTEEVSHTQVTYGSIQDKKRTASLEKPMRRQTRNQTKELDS

[2] = molecular target: T2, Dpb11-MYC (S. cerevisiae) (UniProt P47027); assay: co-IP; anti-MYC (9E11) immunoprecipitation of Dpb11-MYC from whole cell extract of nocodazole-arrested, mock treated cells (no zeocin); Rad9 detected by Western blot; 4°C
T2 sequence: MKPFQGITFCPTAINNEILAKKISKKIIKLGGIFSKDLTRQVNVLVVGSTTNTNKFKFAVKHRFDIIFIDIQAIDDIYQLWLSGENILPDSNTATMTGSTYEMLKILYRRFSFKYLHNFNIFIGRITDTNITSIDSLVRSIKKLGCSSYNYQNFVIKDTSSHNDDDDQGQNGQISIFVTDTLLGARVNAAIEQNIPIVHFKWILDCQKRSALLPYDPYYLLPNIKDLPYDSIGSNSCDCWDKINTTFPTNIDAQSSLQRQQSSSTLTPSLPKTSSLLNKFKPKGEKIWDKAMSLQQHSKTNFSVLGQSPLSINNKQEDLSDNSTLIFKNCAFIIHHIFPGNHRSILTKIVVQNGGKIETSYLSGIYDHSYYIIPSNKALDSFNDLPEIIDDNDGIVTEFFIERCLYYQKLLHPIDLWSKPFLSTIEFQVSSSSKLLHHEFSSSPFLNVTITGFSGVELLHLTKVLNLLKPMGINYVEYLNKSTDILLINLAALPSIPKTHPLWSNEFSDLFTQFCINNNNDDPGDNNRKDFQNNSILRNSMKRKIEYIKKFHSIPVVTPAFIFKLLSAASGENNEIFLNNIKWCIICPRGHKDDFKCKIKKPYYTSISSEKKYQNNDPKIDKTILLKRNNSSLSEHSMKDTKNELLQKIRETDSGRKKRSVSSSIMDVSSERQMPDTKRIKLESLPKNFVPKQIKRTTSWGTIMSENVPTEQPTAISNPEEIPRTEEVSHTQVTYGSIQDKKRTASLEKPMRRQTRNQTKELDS

[3] = molecular target: T2, Dpb11-MYC (S. cerevisiae); assay: co-IP; anti-MYC (9E11) immunoprecipitation of Dpb11-MYC from whole cell extract of nocodazole-arrested cells treated with 150 µg/ml zeocin for 30 min; Rad9 detected by Western blot; 4°C

B1: Rad9 prey (pJG4-5-RAD9) (protein, UniProt P14737 1-1309)
chain: MSGQLVQWKSSPDRVTQSAIKEALHSPLADGDMNEMNVPVDPLENKVNSTNIIEGSPKANPNPVKFMNTSEIFQKSLGLLDESPRHDDELNIEVGDNDRPNANILHNERTPDLDRIANFFKSNRTPGKENLLTKYQSSDLEDTPLMLRKKMTFQTPTDPLEQKTFKKLKSDTGFCYYGEQNDGEENASLEVTEADATFVQMAERSADNYDCALEGIVTPKRYKDELSKSGGMQDERVQKTQIMISAESPNSISSYDKNKITGNGRTTRNVNKVFNNNEDNIGAIEEKNPVKKKSENYSSDDLRERNNQIIQSNESEEINELEKNLNVSGRENDVNNLDIDINSAVSGTPSRNNAEEEMYSSESVNNREPSKKWIFRYSKDKTENNSNRSTQIVNNPRTQEMPLDSISIDTQPLSKSFNTETNNELETQIIVSSLSQGISAQKGPVFHSTGQTEEIKTQIINSPEQNALNATFETPVTLSRINFEPILEVPETSSPSKNTMSKPSNSSPIPKEKDTFNIHEREVETNNVFSNDIQNSSNAATRDDIIIAGSSDFNEQKEITDRIYLQLSGKQISDSGSDETERMSPNELDTKKESTIMSEVELTQELPEVEEQQDLQTSPKKLVVEEETLMEIKKSKGNSLQLHDDNKECNSDKQDGTESLDVALIEHESKGQSSELQKNLMQLFPSESQEIIQNRRTIKRRQKDTIEIGEEEENRSTKTSPTKHLKRNSDLDAASIKREPSCSITIQTGETGSGKDSKEQSYVFPEGIRTADNSFLSKDDIIFGNAVWCQYTWNYKFYPGILLEVDTNQDGCWIYFETGRSLTKDEDIYYLDIRIGDAVTFDGNEYVVVGLECRSHDLNIIRCIRGYDTVHLKKKNASGLLGKRTLIKALSSISLDLSEWAKRAKIILEDNEKNKGDAYRYLRHPIRGRKSMTNVLSPKKHTDDEKDINTHTEVYNNEIESSSEKKEIVKKDSRDALAEHAGAPSLLFSSGEIRTGNVFDKCIFVLTSLFENREELRQTIESQGGTVIESGFSTLFNFTHPLAKSLVNKGNTDNIRELALKLAWKPHSLFADCRFACLITKRHLRSLKYLETLALGWPTLHWKFISACIEKKRIVPHLIYQYLLPSGESFRLSLDSPSKGGIIKSNNIFSFYTQFLRGSNLRDQICGVKKMLNDYIVIVWGRSELDSFVKFAFACLSAGRMLTIDLPNIDVDDTEPLLNALDSLVPRIGSELSNRKLKFLIYANENNGKSQMKLLERLRSQISLKFKKFNYIFHTESKEWLIQTIINEDTGFHDDITDNDIYNTISEVR
B1 was tested, and the binding [1] was “binds”.

B2: Rad9ΔNT prey (pMAG9) (domain or fragment, UniProt P14737 232-1309)
chain: MQDERVQKTQIMISAESPNSISSYDKNKITGNGRTTRNVNKVFNNNEDNIGAIEEKNPVKKKSENYSSDDLRERNNQIIQSNESEEINELEKNLNVSGRENDVNNLDIDINSAVSGTPSRNNAEEEMYSSESVNNREPSKKWIFRYSKDKTENNSNRSTQIVNNPRTQEMPLDSISIDTQPLSKSFNTETNNELETQIIVSSLSQGISAQKGPVFHSTGQTEEIKTQIINSPEQNALNATFETPVTLSRINFEPILEVPETSSPSKNTMSKPSNSSPIPKEKDTFNIHEREVETNNVFSNDIQNSSNAATRDDIIIAGSSDFNEQKEITDRIYLQLSGKQISDSGSDETERMSPNELDTKKESTIMSEVELTQELPEVEEQQDLQTSPKKLVVEEETLMEIKKSKGNSLQLHDDNKECNSDKQDGTESLDVALIEHESKGQSSELQKNLMQLFPSESQEIIQNRRTIKRRQKDTIEIGEEEENRSTKTSPTKHLKRNSDLDAASIKREPSCSITIQTGETGSGKDSKEQSYVFPEGIRTADNSFLSKDDIIFGNAVWCQYTWNYKFYPGILLEVDTNQDGCWIYFETGRSLTKDEDIYYLDIRIGDAVTFDGNEYVVVGLECRSHDLNIIRCIRGYDTVHLKKKNASGLLGKRTLIKALSSISLDLSEWAKRAKIILEDNEKNKGDAYRYLRHPIRGRKSMTNVLSPKKHTDDEKDINTHTEVYNNEIESSSEKKEIVKKDSRDALAEHAGAPSLLFSSGEIRTGNVFDKCIFVLTSLFENREELRQTIESQGGTVIESGFSTLFNFTHPLAKSLVNKGNTDNIRELALKLAWKPHSLFADCRFACLITKRHLRSLKYLETLALGWPTLHWKFISACIEKKRIVPHLIYQYLLPSGESFRLSLDSPSKGGIIKSNNIFSFYTQFLRGSNLRDQICGVKKMLNDYIVIVWGRSELDSFVKFAFACLSAGRMLTIDLPNIDVDDTEPLLNALDSLVPRIGSELSNRKLKFLIYANENNGKSQMKLLERLRSQISLKFKKFNYIFHTESKEWLIQTIINEDTGFHDDITDNDIYNTISEVR
In the case of B2, the binding [1] is reported as “binds”.

B3: Rad9 (endogenous) (protein, UniProt P14737 1-1309)
chain: MSGQLVQWKSSPDRVTQSAIKEALHSPLADGDMNEMNVPVDPLENKVNSTNIIEGSPKANPNPVKFMNTSEIFQKSLGLLDESPRHDDELNIEVGDNDRPNANILHNERTPDLDRIANFFKSNRTPGKENLLTKYQSSDLEDTPLMLRKKMTFQTPTDPLEQKTFKKLKSDTGFCYYGEQNDGEENASLEVTEADATFVQMAERSADNYDCALEGIVTPKRYKDELSKSGGMQDERVQKTQIMISAESPNSISSYDKNKITGNGRTTRNVNKVFNNNEDNIGAIEEKNPVKKKSENYSSDDLRERNNQIIQSNESEEINELEKNLNVSGRENDVNNLDIDINSAVSGTPSRNNAEEEMYSSESVNNREPSKKWIFRYSKDKTENNSNRSTQIVNNPRTQEMPLDSISIDTQPLSKSFNTETNNELETQIIVSSLSQGISAQKGPVFHSTGQTEEIKTQIINSPEQNALNATFETPVTLSRINFEPILEVPETSSPSKNTMSKPSNSSPIPKEKDTFNIHEREVETNNVFSNDIQNSSNAATRDDIIIAGSSDFNEQKEITDRIYLQLSGKQISDSGSDETERMSPNELDTKKESTIMSEVELTQELPEVEEQQDLQTSPKKLVVEEETLMEIKKSKGNSLQLHDDNKECNSDKQDGTESLDVALIEHESKGQSSELQKNLMQLFPSESQEIIQNRRTIKRRQKDTIEIGEEEENRSTKTSPTKHLKRNSDLDAASIKREPSCSITIQTGETGSGKDSKEQSYVFPEGIRTADNSFLSKDDIIFGNAVWCQYTWNYKFYPGILLEVDTNQDGCWIYFETGRSLTKDEDIYYLDIRIGDAVTFDGNEYVVVGLECRSHDLNIIRCIRGYDTVHLKKKNASGLLGKRTLIKALSSISLDLSEWAKRAKIILEDNEKNKGDAYRYLRHPIRGRKSMTNVLSPKKHTDDEKDINTHTEVYNNEIESSSEKKEIVKKDSRDALAEHAGAPSLLFSSGEIRTGNVFDKCIFVLTSLFENREELRQTIESQGGTVIESGFSTLFNFTHPLAKSLVNKGNTDNIRELALKLAWKPHSLFADCRFACLITKRHLRSLKYLETLALGWPTLHWKFISACIEKKRIVPHLIYQYLLPSGESFRLSLDSPSKGGIIKSNNIFSFYTQFLRGSNLRDQICGVKKMLNDYIVIVWGRSELDSFVKFAFACLSAGRMLTIDLPNIDVDDTEPLLNALDSLVPRIGSELSNRKLKFLIYANENNGKSQMKLLERLRSQISLKFKKFNYIFHTESKEWLIQTIINEDTGFHDDITDNDIYNTISEVR
B3 was tested, and the binding [2] was “no binding (condition: mock treated cells (no zeocin))” and the binding [3] was “binds”.

B4: Rad9-S11A mutant protein (protein, UniProt P14737 1-1309)
chain: MSGQLVQWKSAPDRVTQSAIKEALHSPLADGDMNEMNVPVDPLENKVNSTNIIEGSPKANPNPVKFMNTSEIFQKSLGLLDESPRHDDELNIEVGDNDRPNANILHNERTPDLDRIANFFKSNRTPGKENLLTKYQSSDLEDTPLMLRKKMTFQTPTDPLEQKTFKKLKSDTGFCYYGEQNDGEENASLEVTEADATFVQMAERSADNYDCALEGIVTPKRYKDELSKSGGMQDERVQKTQIMISAESPNSISSYDKNKITGNGRTTRNVNKVFNNNEDNIGAIEEKNPVKKKSENYSSDDLRERNNQIIQSNESEEINELEKNLNVSGRENDVNNLDIDINSAVSGTPSRNNAEEEMYSSESVNNREPSKKWIFRYSKDKTENNSNRSTQIVNNPRTQEMPLDSISIDTQPLSKSFNTETNNELETQIIVSSLSQGISAQKGPVFHSTGQTEEIKTQIINSPEQNALNATFETPVTLSRINFEPILEVPETSSPSKNTMSKPSNSSPIPKEKDTFNIHEREVETNNVFSNDIQNSSNAATRDDIIIAGSSDFNEQKEITDRIYLQLSGKQISDSGSDETERMSPNELDTKKESTIMSEVELTQELPEVEEQQDLQTSPKKLVVEEETLMEIKKSKGNSLQLHDDNKECNSDKQDGTESLDVALIEHESKGQSSELQKNLMQLFPSESQEIIQNRRTIKRRQKDTIEIGEEEENRSTKTSPTKHLKRNSDLDAASIKREPSCSITIQTGETGSGKDSKEQSYVFPEGIRTADNSFLSKDDIIFGNAVWCQYTWNYKFYPGILLEVDTNQDGCWIYFETGRSLTKDEDIYYLDIRIGDAVTFDGNEYVVVGLECRSHDLNIIRCIRGYDTVHLKKKNASGLLGKRTLIKALSSISLDLSEWAKRAKIILEDNEKNKGDAYRYLRHPIRGRKSMTNVLSPKKHTDDEKDINTHTEVYNNEIESSSEKKEIVKKDSRDALAEHAGAPSLLFSSGEIRTGNVFDKCIFVLTSLFENREELRQTIESQGGTVIESGFSTLFNFTHPLAKSLVNKGNTDNIRELALKLAWKPHSLFADCRFACLITKRHLRSLKYLETLALGWPTLHWKFISACIEKKRIVPHLIYQYLLPSGESFRLSLDSPSKGGIIKSNNIFSFYTQFLRGSNLRDQICGVKKMLNDYIVIVWGRSELDSFVKFAFACLSAGRMLTIDLPNIDVDDTEPLLNALDSLVPRIGSELSNRKLKFLIYANENNGKSQMKLLERLRSQISLKFKKFNYIFHTESKEWLIQTIINEDTGFHDDITDNDIYNTISEVR
In the case of B4, the binding [3] is reported as “no binding”.
